Data taken from PubChem BioAssay AID504832 (National Center for Advancing Translational Sciences (NCATS), 2011).
The whole screen tested about 310,000 compounds, of which about 18,000 (5.8%) were called active. The inconclusive results got no clear call from the source; some entries with a clear call stand among them for comparison. Calls come from the whole dose curve; as a rule, active = well fitted inhibition curve with a large enough effect; inconclusive = small, poorly fitted or top-dose-only effect, or another doubt; inactive = no such curve, though single readings can be large or run the other way. No potency is given beside an inconclusive call; the fits are too rough.

Assay: Primary qHTS for delayed death inhibitors of the malarial parasite plastid, 48 hour incubation
Settings: P. falciparum luciferase growth in erythrocytes; series mostly up to 28.7 µM; activity change, negative = inhibition: at the top concentration
How it was run: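 Parasite viability was followed by luminescence of a genomically integrated firefly luciferase. Cultures held 0.1% parasitemia at 2% hematocrit (final), incubated under 5% CO2 at 37 C.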
% is set by controls: 0 for no effect and ±100 for the full control effect; potency is the fitted concentration of half-maximal effect; tags give direction and shape of the fitted curve.

SMILES | activity change, negative = inhibition | Potency
CCN1CCN(c2ccc(N=Cc3ccccc3O)cc2)CC1 | inactive: -5.12% | 
Cc1ccccc1CNC(=O)c1ccc(CSCc2ccccc2)cc1 |  | inconclusive [inhibitor, single point]
NS(=O)(=O)c1ccc(CCNC(=O)C(=O)NCC2OCCN2S(=O)(=O)c2ccc(F)cc2)cc1 (stereo not given) | inactive: 30.6% | 
O=C(CN1CCN(C(=O)CN2C(=O)NC3(CCCC3)C2=O)CC1)Nc1cccc(F)c1 | inactive: -7.22% | 
CN(C)/C=C1/C=C(C=O)OC1=O | inactive: -0.243% | 
Fc1cccc(NC(=S)NNc2c3ccccc3nc3ccccc23)c1 |  | active: 2.08 µM
COc1ccc(NC(=O)N2c3ccccc3C(C)=CC2(C)C)cc1 | inactive: -11.6% [at 5.75 µM] | 
Cc1ccc(NC(=O)CCS(=O)(=O)c2ccccc2)cc1S(=O)(=O)N1CCCCCC1 | inactive: -0.155% | 
O=C(c1ccccc1[N+](=O)[O-])N1N=C(c2ccccc2)CC1(O)C(F)(F)F (stereo not given) |  | inconclusive [inhibitor, single point]
O=C(/C=C/Nc1ccc(Br)cc1F)c1ccccc1 | inactive: 170% | 
Cc1cc(Oc2ccc(C#N)cc2)nc(NCc2ccccc2)n1 |  | inconclusive [inhibitor, full curve, poor fit]
O=C(Nc1ccc(S(=O)(=O)N2CCCC2)cc1)c1cncc(Br)c1 |  | inconclusive [inhibitor, single point]
CN(C)c1cc2c(cc1NC(=O)c1ccccc1Cl)n(C)c(=O)n2C |  | inconclusive [inhibitor, partial curve, poor fit]
O=C1[C@@H]2[C@@H]3C[C@@H]([C@H]4ON=C(c5ccc(OCc6ccccc6)cc5)[C@@H]34)[C@@H]2C(=O)N1c1ccc2c(c1)OCO2 |  | inconclusive [inhibitor, single point]
COC(=O)c1cccnc1 | inactive: -17.7% | 
CCOC(=O)c1c(C)[nH]c(C)c1C(=O)COC(=O)c1cccc(C)c1O |  | inconclusive [inhibitor, single point]
CCc1ccc(CNC(=O)CCC(=O)N2Cc3cccc(OC)c3Oc3ncccc32)cc1 |  | inconclusive [inhibitor, single point]
CCOc1ccc(C2/C(=C(\O)c3ccc4c(c3)OCCO4)C(=O)C(=O)N2CCCN2CCOCC2)cc1OC (stereo not given) |  | inconclusive [inhibitor, single point]
Cc1ccc([C@@H]2CC=C(C(=O)O)CN2S(=O)(=O)c2ccc(C)cc2)cc1 | inactive: -13.4% | 
CCOc1cc(C(=O)N(C)CC(=O)Nc2cccc(F)c2)ccc1OCC(=O)N1CCOCC1 |  | inconclusive [inhibitor, single point]
COCCN(C(=O)COC(=O)c1ccccc1Oc1ccccc1)c1c(N)n(Cc2ccccc2)c(=O)[nH]c1=O | inactive: -10.9% | 
CNNC(=S)Nc1cccc(SC)c1 |  | inconclusive [inhibitor, single point]
CCCC1=Nc2cc(C(=O)NCCCN3CCOCC3)ccc2Sc2ccccc21 |  | inconclusive [inhibitor, partial curve]
CCN(CC)c1nc(SCCOC(=O)Nc2ccccc2)nc(N(CC)CC)n1 |  | inconclusive [inhibitor, single point]

SMILES | activity change, negative = inhibition | Potency
CCN(CC)S(=O)(=O)c1ccc(OC)c(NC(=O)c2cc([N+](=O)[O-])ccc2Cl)c1 |  | inconclusive [inhibitor, partial curve, poor fit]
Cc1ccc(CNS(=O)(=O)/C=C/c2ccc3c(c2)OCO3)cc1 | inactive: 17.1% | 
Cc1[nH]n(-c2ccccc2)c(=O)c1C=Nc1cccc2cccnc12 |  | inconclusive [inhibitor, single point]
COc1ccccc1C(C)NC(=O)Cc1ccsc1 (stereo not given) | inactive: -12.4% | 
CCOc1ccc(NC(=O)CCNS(=O)(=O)c2ccc3c(c2)oc(=O)n3C)cc1 |  | inconclusive [inhibitor, partial curve, poor fit]
Cc1nn(CC(=O)Nc2cccnc2)c(C)c1[N+](=O)[O-] | inactive: 28.7% [at 5.75 µM] | 
O=C(C[n+]1ccccc1)NNc1ccccc1 | inactive: -2.33% | 
C/C(=N\NC(=O)CSCc1ccccc1Cl)c1cccc(NC(=O)c2ccccc2)c1 |  | inconclusive [inhibitor, single point]
COc1ccc(N(S(=O)(=O)c2ccccc2)S(=O)(=O)c2ccccc2)c(N)c1 |  | inconclusive [inhibitor, single point]
N/C(=N\OC(=O)N1CCOCC1)c1ccc(Cl)cc1 |  | active: 9.28 µM
COc1ccc(C(=O)NCCOc2cccc(OC)c2)cc1 | inactive: 8.05% | 
CCOC(=O)Nc1sc(NS(=O)(=O)c2ccccc2)nc1C | inactive: 11.1% | 
O=C(NC1CC1)C1=C[C@@H](c2csc3ccccc23)C[C@@H](OCc2ccc(CO)cc2)O1 |  | inconclusive [inhibitor, partial curve, poor fit]
COc1ccc(-c2[nH]ncc2/C=N/NC(=O)c2cc(Br)ccc2O)c(OC)c1 | inactive: -3.08% | 
c1ccc(Sc2nc(N3CCCCC3)nc(N3CCCCC3)n2)nc1 |  | inconclusive [inhibitor, single point]
CC(C)CNC(=S)N1CCN(C(c2ccccc2)c2ccccc2)CC1 |  | inconclusive [inhibitor, single point]
Cc1nc2oc3c(NCc4ccccn4)ncnc3c2c2c1COC(C)(C)C2 |  | inconclusive [inhibitor, single point]
Cc1cc(OCC(=O)O/N=C(\N)c2ccccc2)cc(C)c1Cl |  | inconclusive [inhibitor, single point]
COc1ccc(-c2ocnc2C(=O)N2CCN(C(c3ccccc3)c3ccccc3)CC2)cc1 |  | active: 8.28 µM
O=C(CSc1ncc(C(F)(F)F)cc1Cl)N1CCN(S(=O)(=O)c2ccc3ccccc3c2)CC1 |  | inconclusive [inhibitor, single point]
CC(=O)c1ccc(N(C(=O)Cn2nnc3ccccc32)C(C(=O)NC2CCCCC2)c2cn(C)nc2C)cc1 (stereo not given) |  | inconclusive [inhibitor, single point]
Cc1ccc(S(=O)(=O)Cn2nnnc2C(CC(C)C)N2CCN(C(=O)c3ccco3)CC2)cc1 (stereo not given) |  | active: 11.7 µM
CCN(Cc1cc(=O)n2ccsc2n1)c1cccc2ccccc12 |  | inconclusive [inhibitor, single point]
C=CCNC(=O)CSc1nnc(-c2ccccn2)n1Cc1ccccc1 |  | inconclusive [inhibitor, single point]

SMILES | activity change, negative = inhibition | Potency
COc1ccc2c(c1)C(=O)N(c1ccccc1)C(=O)C2 |  | inconclusive [inhibitor, full curve]
O=C(CN1C(=O)NC2(CCCC2)C1=O)Nc1nc(-c2ccc(F)c(F)c2)cs1 |  | inconclusive [inhibitor, single point]
Cc1cc(S(=O)(=O)N2CCC3(CC2)OCCN3S(=O)(=O)c2cccs2)ccc1F | inactive: -26% | 
COC(=O)c1ccc(NC(=S)NC(=O)c2c(Cl)cnn2C)cc1 |  | inconclusive [inhibitor, full curve, poor fit]
O=C1Nc2ccc(Br)cc2C(c2ccccc2Cl)=NC1O (stereo not given) |  | inconclusive [inhibitor, full curve, poor fit]
COC(=O)C1=C(Nc2ccccc2NC(=O)CCCC(=O)O)CSC1 | inactive: 21.2% | 
O=C(NCC(=O)N(c1ccc(F)cc1)C(C(=O)NC1CCCC1)c1ccncc1)c1ccco1 (stereo not given) | inactive: 27.5% | 
O=C(O)c1cccc(S(=O)(=O)N2CCN(c3ccccn3)CC2)c1 | inactive: -10.8% | 
COc1ccc2oc(=O)c(C(=O)NCc3ccc4c(c3)OCO4)cc2c1 | inactive: 27.4% | 
Cc1cccc(NC(=O)C2Cc3ccccc3CN2C(=O)OCc2ccccc2)c1C (stereo not given) |  | inconclusive [inhibitor, partial curve, poor fit]
Cc1ccc(S(=O)(=O)N2CCN(C(=O)COC(=O)/C=C/c3ccccc3F)CC2)c(C)c1 |  | inconclusive [inhibitor, single point]
COc1cc2c3cc1Oc1cc(ccc1O)C[C@@H]1c4c(cc(OC)c(O)c4Oc4ccc(cc4)C[C@H]3N(C)CC2)CCN1C |  | active: 2.08 µM
Cc1c(C(=O)CN2CCOCC2)[nH]c2ccccc12 |  | inconclusive [inhibitor, single point]
CC(C)(C)OC(=O)NCCCCCNC(=O)c1[nH]cnc1C(=O)N[C@@H](Cc1ccccc1)C(=O)OCc1ccccc1 |  | active: 8.28 µM
Cc1ccc(N(C)C(=O)N2CCN(c3ccccn3)CC2)cc1 | inactive: -0.148% | 
COc1ccccc1N(CC(=O)N1CCCC1)S(=O)(=O)c1ccc(C)cc1 | inactive: -10.5% | 
COc1cc(/C=N/NC(=O)c2cncc(Br)c2)cc([N+](=O)[O-])c1O |  | inconclusive [inhibitor, full curve, poor fit]
c1ccc(CN2CCC(N3CCN(Cc4ccc5c(c4)OCO5)CC3)CC2)cc1 |  | active: 14.7 µM
Cc1ccc(-c2nn(-c3ccccc3)cc2/C=C/C(=O)Nc2cccc(S(N)(=O)=O)c2)cc1 |  | inconclusive [inhibitor, single point]
OC(CNCCCN1CCCCC1)COc1ccccc1 (stereo not given) |  | inconclusive [inhibitor, partial curve]
COc1ccc(CC(=O)Nc2c(C(=O)N3CCN(c4ncccn4)CC3)oc3ccccc23)cc1 |  | inconclusive [inhibitor, single point]
Cc1cc(=O)n2nc(N3CCC(C(=O)NC(C)c4ccccc4)CC3)sc2n1 (stereo not given) | inactive: -7.09% | 
